# Reference: the supplement of paper PMC3334620
# Whole data set: some 33,000 sequences, median “E-score (-0.5 to 0.5)” near -0.035, cut for the highest 2% near 0.34. The list shows a part of the results.
# Target: T1, Mot3 (UniProt P54785)
# T1 sequence: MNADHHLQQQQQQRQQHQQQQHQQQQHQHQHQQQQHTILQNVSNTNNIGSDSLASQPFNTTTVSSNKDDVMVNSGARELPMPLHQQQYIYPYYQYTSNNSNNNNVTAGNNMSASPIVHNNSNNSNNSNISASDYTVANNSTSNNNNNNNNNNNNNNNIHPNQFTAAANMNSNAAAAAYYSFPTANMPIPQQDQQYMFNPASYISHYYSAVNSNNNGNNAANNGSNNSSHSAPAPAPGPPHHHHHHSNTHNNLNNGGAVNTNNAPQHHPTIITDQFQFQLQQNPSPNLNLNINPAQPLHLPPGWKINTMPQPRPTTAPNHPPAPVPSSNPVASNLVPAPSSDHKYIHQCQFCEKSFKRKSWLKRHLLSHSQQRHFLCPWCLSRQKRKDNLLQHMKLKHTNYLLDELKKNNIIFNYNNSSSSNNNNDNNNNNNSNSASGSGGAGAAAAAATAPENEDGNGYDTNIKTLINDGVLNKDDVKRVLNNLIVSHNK
# Experiment: PBM E-score (8-mer binding enrichment) (E-score (-0.5 to 0.5)); higher = stronger / more preferred TF binding; most listed sequences are background and not binding sites
# Settings: protein concentration: 200 nM; construct: GST-full length
# How it was run: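 Universal all-10-mer Agilent arrays, double-stranded by primer extension on fresh or once-stripped slides, were probed with about 100-200 nM GST-tagged yeast transcription factors made by PURExpress. Fluorescent anti-GST detected bound protein, and masliner normalised the scans. E-scores from the Universal PBM Analysis Suite were given to each ungapped eight-base word pooled with its reverse complement.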
row,Sequence,PBM E-score
1,ACATAAGT,0.235
2,AAACTTCA,0.126
3,AAAGTTCT,-0.205
4,ACGGCGAT,0.00109
5,ACGCGACG,0.266
6,CACTACAA,0.186
7,AATTTAGC,-0.12
8,CCGACCTA,-0.203
9,GAAACTGA,-0.103
10,AAAGACCG,0.0522
11,CGTCGCTA,-0.0563
12,TCGGTCAA,0.0157
13,CGCCTTGA,-0.0273
14,GCACTCCC,-0.112
15,ATCGAGAT,-0.238
16,AAAGTAAA,0.186
17,CTTTTCCC,-0.0316
18,ATTGCATC,-0.00145
19,ATGAGTAA,-0.051
20,AGAAAGTG,-0.0456
21,AACATGGC,0.268
22,AATGGGAA,-0.121
23,ATACAATG,0.00795
24,GGGGCACC,-0.152
25,AAGAAGAT,0.0804

row,Sequence,PBM E-score
1,CGGTGAAA,-0.0615
2,GCTCCACA,-0.0932
3,CAACTGAC,-0.0668
4,ACGAAAAG,-0.00404
5,GAAAAAGC,0.0635
6,GTACATAC,0.313
7,TCTGCAAA,0.0287
8,AGAGCCTA,0.177
9,AGCGCCGA,-0.311
10,ATCACAAC,0.116
11,AAGAAATA,0.131
12,ATGCTATA,-0.013
13,CTCCTTTA,0.15
14,GCAATAGA,-0.018
15,AACACGTT,0.365
16,TGTAACAA,0.28
17,CAGGTGGA,-0.0981
18,ACTTTCAT,-0.13
19,AATAGGGC,0.0927
20,ATTCTCAG,-0.0794
21,ATCAGAAA,0.0805
22,AACGCCCC,-0.0905
23,ATCTTAAG,-0.14
24,CTTAACTA,0.139
25,CTAGTGAG,-0.236

row,Sequence,PBM E-score
1,CGTCTGAC,-0.068
2,ATCTTAAA,-0.0684
3,ATACTTCA,-0.124
4,ACGGCTCT,-0.196
5,CAATAAGA,-0.049
6,ATCCCCGA,-0.15
7,CAAGCGGA,-0.0611
8,CCTTGCTA,0.183
9,GAGCCCCC,-0.247
10,AATCCTTG,0.0944
11,GGAGGCGA,-0.194
12,AGCTGAGC,-0.229
13,CTGCGATC,-0.191
14,AAAGGCAT,0.39
15,AAGTCAAC,0.0384
16,CAGCGACC,-0.299
17,AATATCAC,-0.107
18,AGTTCTCG,-0.137
19,TCGCCAAA,-0.196
20,ATTTGCTG,-0.0338
21,CCTCATTA,0.13
22,AGCCGACA,-0.0661
23,CTATCTCC,-0.0479
24,AATCTTCG,0.0651
25,CGGTGATC,-0.00595

row,Sequence,PBM E-score
1,TGAACGCA,0.0508
2,CCTTCTTC,0.0135
3,AATCCTCC,-0.315
4,ACGGCTGA,-0.181
5,AACTGTCG,0.00222
6,AGCGACAC,0.071
7,ACGGACGG,-0.26
8,CGATAGGA,0.0217
9,CACAGCTA,0.118
10,CATTACGC,0.27
11,ATGTGGGC,-0.0442
12,CGTCGCCC,-0.0459
13,CCCCAGCC,-0.276
14,GCTCCAGA,-0.178
15,AATCCCAC,-0.112
16,ATGGAAGA,-0.0964
17,ATGTATAA,0.256
18,ATAAGCAT,-0.109
19,CAGGTGGG,-0.0969
20,CAAGATAC,0.23
21,GGAGATTA,-0.00301
22,GAAAACAA,0.168
23,TGGGCCAA,-0.0942
24,AAGCGATG,-0.038
25,CAGATATG,-0.119

row,Sequence,PBM E-score
1,ATTCTAGC,-0.127
2,TCAAAGAA,0.169
3,CATAATAC,0.158
4,GTGGGTTA,-0.0837
5,ATACTAAT,-0.00831
6,GCCATGCC,-0.183
7,GCATTGGA,-0.234
8,GAAGGGTA,0.0495
9,GGACGAAA,0.00917
10,GATCTTGA,-0.134
11,CCAACAAC,0.168
12,AAGCGCCG,-0.0574
13,ATGTTTGG,-0.00108
14,CCTCTACA,0.184
15,AAAGTTGA,-0.0636
16,AGCATTTC,-0.051
17,CACTTAAA,0.0503
18,CTTCGGAA,-0.181
19,ATACTTCG,-0.0852
20,GACCCCCC,-0.285
21,AGGCTCAC,0.297
22,TCTTGGAA,0.0908
23,AGGCCACC,0.093
24,AGAATAAT,-0.00164
25,TAAAAGCA,-0.123

row,Sequence,PBM E-score
1,CTCACAAA,0.0174
2,CGCGTGGC,-0.155
3,AATTCAGG,0.166
4,ATGGTTGA,-0.153
5,ACGGCCAC,-0.168
6,CACAACTA,0.199
7,AATCTACG,0.158
8,GTGTGAGA,-0.0716
9,AATCAATG,0.0568
10,GGTGCTAA,-0.0828
11,TAACAATA,0.292
12,CAGTGTAC,0.0758
13,CGGAATAG,-0.201
14,TATCTTCA,0.0832
15,CGGTTGCC,0.162
16,CACAAGCG,0.024
17,GCTCCTGA,-0.157
18,AATGTTAG,0.198
19,ACTGGAAT,-0.0703
20,CGCAGGGC,-0.0529
21,GAGAGAAC,-0.0126
22,ATCTCTCA,-0.0314
23,GCTGGGAA,-0.198
24,TAAGTGTA,0.139
25,CGCACCCC,-0.18

row,Sequence,PBM E-score
1,TAACAGAA,0.227
2,TTAGCCAA,-0.119
3,ACTGCGGC,-0.227
4,CCGGGTAG,-0.218
5,CGTTCGCA,-0.021
6,CGTAACGA,-0.0547
7,CGCTTAAA,0.0156
8,CGACCCCG,-0.139
9,CATTTTGA,-0.063
10,GCATACAC,0.14
11,AAATATAG,0.108
12,GAGGCTCA,-0.313
13,AGACTACG,-0.238
14,CCTTTATC,-0.0342
15,CTCCCAGC,-0.0785
16,ATTATTCA,0.103
17,TAAGGATA,-0.102
18,AAGGAAGC,-0.157
19,TAGAACCA,0.0894
20,ACCCCGCG,-0.222
21,GTAGCAGA,-0.0399
22,CCCCCAAC,-0.2
